The full ranking holds about 110,000 compounds; the median of “z-score” is about -0.1, and the highest 2% start at about 2. The list shows a part of the results. Active and inactive are the calls of the source.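 The calls were made as follows: active = z-score in the third read window above 3 or below -3; inactive = the rest.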
What follows are molecules tested against Metabotropic glutamate receptor 8 (Rattus norvegicus) (UniProt P70579) (assay: rat mGluR8 modulators via GIRK flux, primary screen, cell-based, thallium flux, HTS (AID 488969)). Conditions: HEK293 rat mGluR8, GIRK (G protein-gated inwardly rectifying potassium channel) thallium flux, FluoZin2; at 10 µM; stronger effect = higher value; submaximal glutamate (EC20) added with thallium.
UniProt P70579, sequence (P70579 whole entry, looked up): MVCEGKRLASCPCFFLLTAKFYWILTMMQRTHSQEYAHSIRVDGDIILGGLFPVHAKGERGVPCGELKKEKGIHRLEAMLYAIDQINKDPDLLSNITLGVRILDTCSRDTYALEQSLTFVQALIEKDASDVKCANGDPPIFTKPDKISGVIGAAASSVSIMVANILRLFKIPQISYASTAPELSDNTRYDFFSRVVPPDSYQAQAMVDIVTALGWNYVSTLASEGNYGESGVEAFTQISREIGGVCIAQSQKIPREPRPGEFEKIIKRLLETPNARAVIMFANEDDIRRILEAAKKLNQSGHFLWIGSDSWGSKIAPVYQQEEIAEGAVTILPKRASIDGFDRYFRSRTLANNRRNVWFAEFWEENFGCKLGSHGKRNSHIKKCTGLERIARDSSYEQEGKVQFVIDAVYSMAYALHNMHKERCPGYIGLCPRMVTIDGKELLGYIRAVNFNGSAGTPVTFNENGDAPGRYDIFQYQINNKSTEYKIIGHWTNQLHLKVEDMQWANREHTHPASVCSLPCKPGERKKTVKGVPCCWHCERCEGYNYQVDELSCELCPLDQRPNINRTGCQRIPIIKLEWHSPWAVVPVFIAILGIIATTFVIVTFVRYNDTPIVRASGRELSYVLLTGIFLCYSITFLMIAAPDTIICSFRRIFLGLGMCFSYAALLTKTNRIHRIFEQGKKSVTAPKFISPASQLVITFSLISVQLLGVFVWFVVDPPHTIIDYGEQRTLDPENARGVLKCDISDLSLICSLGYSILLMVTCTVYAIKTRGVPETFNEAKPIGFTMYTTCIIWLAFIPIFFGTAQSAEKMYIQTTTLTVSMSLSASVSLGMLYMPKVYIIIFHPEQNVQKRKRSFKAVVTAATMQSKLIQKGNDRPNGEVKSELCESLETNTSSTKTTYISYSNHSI
`CN1CCN(C(=O)c2ccccc2NC(=O)c2cccs2)CC1` showed a z-score of -0.803.
In the case of `Cn1c(CCc2ccccc2)nnc1SCC(=O)N1CCCC1`, the z-score is reported as -0.39.
`Oc1ccc2ccccc2c1C=NCc1cn2ccsc2n1` showed a z-score of 1.23.
With `O=C(CCc1ccccc1)Nc1ncn[nH]1` the z-score was -0.167.
`CCN1C(=O)c2ccc(C(=O)NCc3ccc4c(c3)OCO4)cc2C1=O` was tested, and the z-score was -1.27.
Work on `CCOC(=O)c1cc2c(N)c(C(=O)c3cc(C#N)c(SC)nc3C)sc2nc1C` yielded a z-score of 0.539.
`O=C(OC1CCOC1=O)c1cc(-c2ccc(Br)cc2)nc2ccccc12` (centres undefined) showed a z-score of -0.248.
Molecule `Clc1ccc(CSc2nccn2Cc2ccccc2)cc1` has a z-score of -0.314.
With `COc1ccccc1N1CCN(Cc2cc(Br)c(O)c3ncccc23)CC1` the z-score was active: 3.32.
In the case of `C=CCn1c(Br)nc2c1c(=O)[nH]c(=O)n2C`, the z-score is reported as 0.231.
Molecule `COC(=O)c1ccc(N=NNc2ccc(C(=O)OC)cc2)cc1` has a z-score of -0.0451.
`CC(=O)c1cccc(NC(=O)N2CCCC2C(=O)Nc2cccc(C)c2)c1` (centres undefined) showed a z-score of 0.691.
With `COC(=O)c1ccc2c(=O)n(CCO)c(=S)[nH]c2c1` the z-score was 0.000255.
`COc1ccc(C(=O)N2C(=S)NC(=O)/C2=C\c2ccc(C)cc2)cc1` gave a z-score of 2.75.
`COc1ccc(-c2nn(-c3ccccc3)cc2/C=N/NC(=O)c2ccc3c(c2)OCO3)cc1` was tested, and the z-score was 0.539.
Work on `COC(=O)c1ccc(C2/C(=C(/O)c3ccc(OC)cc3)C(=O)C(=O)N2c2cc(C)on2)cc1` (centres undefined) yielded a z-score of -0.603.
Molecule `CN(C)S(=O)(=O)c1cccc(NC(=S)NN=C(Cc2ccccc2)Cc2ccccc2)c1` has a z-score of 0.673.
`Cc1cc(C)c(NC(=O)c2cc3c(nc4sccn43)s2)c(C)c1` was tested, and the z-score was 0.0814.
With `Cn1c(=O)oc2cc(S(=O)(=O)N3CCCC(C(=O)Nc4nccs4)C3)ccc21` (centres undefined) the z-score was 0.436.
`CNC(=O)c1cc(Cl)c(OC)c(OC)c1` gave a z-score of -0.118.
Work on `CCOc1ccc(CN2CCN(S(=O)(=O)c3ccc(NC(C)=O)cc3)CC2)cc1OC` yielded a z-score of 0.0915.
`C=CCOc1ccc(C2C(C(=O)c3ccco3)=C(O)C(=O)N2CCCN(CC)CC)cc1` (centres undefined) gave a z-score of -0.268.
For `COC(=O)c1cccc(N(C(=O)c2ccco2)C(C(=O)NC2CCCC2)c2ccco2)c1` (centres undefined), the z-score was -0.117.
Molecule `COc1ccc(OC)c(N(CC(=O)Nc2cccnc2)S(C)(=O)=O)c1` has a z-score of -0.174.
Work on `COc1ccc(OCC(=O)Nc2cccc(C(=O)Nc3ccccc3C(=O)O)c2)cc1` yielded a z-score of -0.957.
In the case of `COCCNC(=O)c1onc(CSc2ccc(C(C)C)cc2)c1C(=O)O`, the z-score is reported as -0.139.
For `CCc1ccc(-n2c(=O)c3c(C)c(C(=O)N(C)C)sc3n(CC(=O)NCc3ccco3)c2=O)cc1`, the z-score was 0.869.
For `COc1ccc(CNC(=O)COC(=O)C2=COCCO2)cc1`, the z-score was 0.00886.
Molecule `CC(C)CC(=O)c1c[nH]c(C(=O)NCC2CCCO2)c1` (centres undefined) has a z-score of 0.015.

From PubChem BioAssay AID488969 (Vanderbilt High Throughput Screening Facility, 2010)
